The whole screen tested about 350,000 compounds, of which about 31,000 (8.9%) were called active. This list was built around the results that the source calls inconclusive (neither active nor inactive); the mix of calls is not that of the screen. Calls follow the shape of the dose curve; as a rule, active = well fitted inhibition curve with a large enough effect; inconclusive = small, poorly fitted or top-dose-only effect; inactive = no such curve, though single readings can be large or run the other way. Potencies of inconclusive entries are doubtful fits and often do not repeat.
What follows are compounds tested against Histone-lysine N-methyltransferase EHMT2 (Homo sapiens) (UniProt Q96KQ7) (assay: qHTS Assay for Inhibitors of Histone Lysine Methyltransferase G9a). Conditions: G9a H3K9 monomethylation, AlphaScreen, 2 h; activity, negative = inhibition: at 59 µM (top of the series) unless noted.
UniProt Q96KQ7, sequence (Q96KQ7 whole entry, looked up): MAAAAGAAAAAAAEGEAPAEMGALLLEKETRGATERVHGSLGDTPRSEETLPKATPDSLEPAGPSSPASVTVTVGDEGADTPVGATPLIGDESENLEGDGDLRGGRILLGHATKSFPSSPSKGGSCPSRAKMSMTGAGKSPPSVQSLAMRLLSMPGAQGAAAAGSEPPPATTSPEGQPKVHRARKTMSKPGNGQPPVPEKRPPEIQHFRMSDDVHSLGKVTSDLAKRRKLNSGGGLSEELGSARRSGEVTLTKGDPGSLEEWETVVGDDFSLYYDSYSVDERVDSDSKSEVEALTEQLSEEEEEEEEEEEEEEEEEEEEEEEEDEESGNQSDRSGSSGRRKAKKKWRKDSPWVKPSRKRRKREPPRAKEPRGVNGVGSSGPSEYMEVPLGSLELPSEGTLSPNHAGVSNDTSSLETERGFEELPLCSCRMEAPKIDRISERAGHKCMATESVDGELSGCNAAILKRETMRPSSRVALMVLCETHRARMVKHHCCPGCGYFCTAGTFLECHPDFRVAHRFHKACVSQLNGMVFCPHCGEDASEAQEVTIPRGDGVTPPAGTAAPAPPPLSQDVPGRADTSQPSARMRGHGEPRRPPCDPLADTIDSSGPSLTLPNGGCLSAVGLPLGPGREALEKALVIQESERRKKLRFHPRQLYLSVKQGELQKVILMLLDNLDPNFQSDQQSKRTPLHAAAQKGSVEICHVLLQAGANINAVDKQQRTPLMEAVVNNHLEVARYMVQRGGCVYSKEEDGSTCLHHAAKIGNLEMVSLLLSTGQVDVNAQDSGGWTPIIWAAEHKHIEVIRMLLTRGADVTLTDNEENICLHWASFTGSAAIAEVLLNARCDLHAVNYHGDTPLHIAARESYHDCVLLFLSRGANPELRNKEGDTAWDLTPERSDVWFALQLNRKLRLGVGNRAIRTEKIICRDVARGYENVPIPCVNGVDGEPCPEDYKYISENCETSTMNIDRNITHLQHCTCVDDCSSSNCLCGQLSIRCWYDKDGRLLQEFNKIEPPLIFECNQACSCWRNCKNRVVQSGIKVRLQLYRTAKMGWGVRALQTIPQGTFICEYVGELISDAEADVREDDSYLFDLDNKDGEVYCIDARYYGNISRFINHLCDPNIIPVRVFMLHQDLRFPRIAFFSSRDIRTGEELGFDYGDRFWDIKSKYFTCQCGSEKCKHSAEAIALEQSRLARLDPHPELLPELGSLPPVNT
Procedure, shortened: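 G9a (20 nM) preincubated 15 min RT with compounds, then 500 nM biotinylated H3K9 peptide and 20 uM SAM added; 2 h RT reaction. Monomethyl-H3K9 product detected by AlphaScreen with anti-H3K9me1 antibody, streptavidin donor and anti-rabbit IgG acceptor beads.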
% is scaled to controls: 0 for no effect and ±100 for the full control effect; potency is read from the fitted curve at half-maximal effect; tags tell the direction and shape of the fitted curve.
Also: nearly all actives have a fitted effect of over 75% in size.

| SMILES | Potency | activity, negative = inhibition |
| --- | --- | --- |
| COc1ccc(N2CCN(CCCNC(=O)Cn3c(=O)c4cccn4c4ccccc43)CC2)cc1 | active: 39.8 µM | – |
| CC(=O)c1cccc(NC(=O)c2c(N3CCCC3=O)c3cc(F)ccc3n2C)c1 | inconclusive: 6.31 µM [inhibitor, single point] | – |
| CCCCCCc1c(O)nc(SCCN2CCOCC2)[nH]c1=O | inconclusive: 0.398 µM [inhibitor, full curve, poor fit] | – |
| Clc1ccc(-n2nnnc2-c2ccccc2)cc1Cl | inconclusive: 31.6 µM [inhibitor, single point] | – |
| Cc1cc(C(=O)NC2CCCc3c2cnn3-c2cccc(C)c2C)c(C)o1 (stereo not given) | inconclusive: 35.5 µM [inhibitor, partial curve, poor fit] | – |
| Cc1ccc(N/N=C(\C#N)C(N)=S)cc1C | active: 2.82 µM | – |
| O=C(NC1CC1)C1CC(=O)N(c2ccc(F)cc2)C1 (stereo not given) | inactive | – |
| COc1ccc(S(=O)(=O)Cc2ccc(C(=O)N3CCN(c4cccc(C)c4)C(C)C3)o2)cc1 (stereo not given) | inconclusive: 79.4 µM [inhibitor, single point] | – |
| CCCn1c(CCNc2nc(-c3ccc(OC)cc3)cs2)nc2ccccc21 | inconclusive: 100 µM [inhibitor, partial curve, poor fit] | – |
| Cc1c(/C=N/NC(=O)CNc2ccccc2)c2ccccn2c1C(=O)c1ccncc1 | active: 44.7 µM | – |
| Cc1ccc2c(C(=O)CN3CCCCC3CCO)c(C)[nH]c2c1 (stereo not given) | inconclusive: 79.4 µM [inhibitor, partial curve] | – |
| Fc1c(F)c(F)c(N/N=C/c2c[nH]c3ccccc23)c(F)c1F | inconclusive: 22.4 µM [inhibitor, single point] | – |
| CN(C(=O)C1=CC(c2ccc3c(c2)OCO3)=NS(=O)(=O)N1C)c1ccccc1 | inconclusive: 35.5 µM [inhibitor, partial curve, poor fit] | – |
| Cc1ccc2nc(N3C(=O)C(O)=C(C(=O)c4ccco4)C3c3cccc(O)c3)sc2c1 (stereo not given) | active: 31.6 µM | – |
| CN(C)CCCN(C(=O)c1ccc(Br)s1)c1nc2cc3c(cc2s1)OCO3 | inconclusive: 22.4 µM [inhibitor, single point] | – |
| COc1ccc(C)cc1NC(=O)C(OC(=O)c1ccc(Cl)c(S(=O)(=O)N(C)c2ccccc2)c1)c1ccccc1 (stereo not given) | inconclusive: 44.7 µM [inhibitor, partial curve] | – |
| O=C/C(=C\Nc1ccccn1)c1nc2cc(Cl)ccc2o1 | inconclusive: 20 µM [inhibitor, single point] | – |
| COc1ccccc1-n1cnc2cc(NS(=O)(=O)c3ccccc3)ccc21 | inconclusive: 0.316 µM [inhibitor, partial curve, poor fit] | – |
| Cc1nc2c(c(C)nn2-c2ccccc2)c(C)c1CCC(=O)NCCc1ccccc1 | inactive | – |
| CCN(CC(=O)Nc1sc2c(c1C#N)CCC(C)C2)Cc1nc2ccccc2c(=O)[nH]1 (stereo not given) | inconclusive: 89.1 µM [inhibitor, single point] | – |
| Cc1cc(C)cc(Oc2nn[nH]n2)c1 | inactive | – |
| CSc1ccc(-c2ccco2)nn1 | active: 31.6 µM | – |
| O=C1N=c2ccccc2=C1c1[nH]c(=S)[nH]c1O | inconclusive: 39.8 µM [inhibitor, single point] | – |
| Cc1ccc(N2C(=O)C(c3c(C)[nH]n(-c4ccccc4)c3=O)(C(F)(F)F)C3=C2CC(C)(C)CC3=O)cc1 (stereo not given) | inconclusive: 17.8 µM [inhibitor, single point] | – |

| SMILES | Potency | activity, negative = inhibition |
| --- | --- | --- |
| CCC1=Nc2cc(C(=O)NCCN3CCCC3)ccc2Sc2ccccc21 | active: 44.7 µM | – |
| CS(=O)(=O)c1ncc(Cl)c(C(=O)Nc2ccc(N3CCOCC3)cc2)n1 | – | inconclusive: -79.2% [inhibitor] |
| O=C(CCNS(=O)(=O)c1ccc(Cl)cc1)OCC(=O)N1CCN(C(=O)c2ccco2)CC1 | inconclusive: 39.8 µM [inhibitor, partial curve, poor fit] | – |
| CC(NC(=O)c1nn(C)c2c1CS(=O)(=O)c1ccccc1-2)c1ccccc1 (stereo not given) | inactive | – |
| CCCC(=O)Nc1nnc2n1CCS2 | inconclusive: 31.6 µM [inhibitor, single point] | – |
| O=C(CSc1nc2c(c(=O)[nH]1)CN(Cc1ccc3c(c1)OCO3)CC2)Nc1cccc(Cl)c1 | inconclusive: 31.6 µM [inhibitor, partial curve, poor fit] | – |
| CC(C)CCOc1ccc(C(=O)CCNC(C)C(=O)O)cc1 (stereo not given) | active: 5.62 µM | – |
| Cc1cc(C)n(-c2ccc(C(=O)OCC(=O)Nc3ccc(S(=O)(=O)N4CCCCC4)cc3)cc2)n1 | inconclusive: 89.1 µM [inhibitor, single point] | – |
| Cc1ccc(C2=NS(=O)(=O)N(C)C(C(=O)NCc3ccc(F)cc3)=C2)cc1 | inconclusive: 7.08 µM [inhibitor, full curve] | – |
| COc1ccccc1CNC(=O)COC(=O)[C@H](Cc1c[nH]c2ccccc12)NC(=O)c1cccs1 | inconclusive: 20 µM [inhibitor, partial curve, poor fit] | – |
| COCCSc1ccccc1C(=O)N1CCOCC1 | inconclusive: 14.1 µM [inhibitor, partial curve, poor fit] | – |
| Cc1nc(S(=O)(=O)NC2CCCCC2)c(C#N)c(C)c1Cl | active: 79.4 µM | – |
| Cc1ccc(S(=O)(=O)NCC(=O)OCC(=O)N2CCN(C(=O)c3ccco3)CC2)cc1C | inconclusive: 50.1 µM [inhibitor, partial curve, poor fit] | – |
| COc1cccc(C(=O)CSc2nc3cccnc3n2C)c1 | inconclusive: 28.2 µM [inhibitor, partial curve, poor fit] | – |
| CCOc1ccc2nc(N3C(=O)CNC3=S)sc2c1 | inactive | – |
| COc1ccc(NS(=O)(=O)c2cc(OC)ccc2NC(=O)c2cc(C)oc2C)cc1 | active: 79.4 µM | – |
| Cc1c(C(=O)NCc2c(F)cc(F)cc2F)oc2ccc(S(=O)(=O)N3CCOCC3)cc12 | inactive | – |
| Cc1ccc(OCC(=O)N(Cc2ccc(C)o2)C2CCS(=O)(=O)C2)cc1 (stereo not given) | inactive | – |
| COc1ccc(-c2cn(-c3ccc(C)cc3C)c(=S)[nH]2)cc1OC | inconclusive: 63.1 µM [inhibitor, partial curve, poor fit] | – |
| O=C(O)/C=C/C(=O)Nc1ccc(-n2nccc2C(F)(F)F)cc1 | inconclusive: 70.8 µM [inhibitor, single point] | – |
| Brc1ccc(-c2cn3nc4c(nc3n2)CCCC4)cc1 | inconclusive: 6.31 µM [inhibitor, single point] | – |
| CCN1C(=O)/C(=C\N2CCN(c3cccc(Cl)c3)CC2)SC1=S | inconclusive: 63.1 µM [inhibitor, single point] | – |
| CCc1ccccc1NC(=O)c1cc(S(=O)(=O)N2CCCC2)cn1C | inconclusive: 12.6 µM [inhibitor, partial curve] | – |
| CC1(C)CC(=O)C=C(Nc2ccccc2N)C1 | inconclusive: 89.1 µM [inhibitor, single point] | – |

| SMILES | Potency | activity, negative = inhibition |
| --- | --- | --- |
| CC(OC(=O)CNC(=O)c1cccs1)C(=O)Nc1ccc(S(N)(=O)=O)cc1 (stereo not given) | – | inactive: -1.89% [at 0.501 µM] |
| CCOc1ccc(CN2CCC(C(=O)N3CCN(c4ccccc4F)CC3)CC2)cc1OC | active: 8.91 µM | – |
| COc1cccc(COC(=O)C2CCN(S(=O)(=O)c3ccc(C)cc3C)CC2)c1OC | – | inactive: 3.35% [at 0.501 µM] |
| COC(=O)c1cnc(N2CCN(c3ccccc3F)CC2)c2ccccc12 | inactive | – |
| Cc1ccc(NC(=O)C2CCN(c3nc4ccccc4[nH]3)CC2)c(C)c1 | inactive | – |
| COc1ccc(OC)c(NC(=O)c2c(NCc3cccs3)sc3c2CCCC3)c1 | inconclusive: 39.8 µM [inhibitor, single point] | – |
| C[C@H](NC(=O)[C@@H]1Cc2ccccc2CN1)C(=O)NCC1CCCO1 (stereo not given in full) | active: 39.8 µM | – |
| CC(=O)c1cc2c(cc1NC(=O)CN1CCCCCCC1)OCO2 | active: 10 µM | – |
| Cc1cncn1CCc1nc2c3ccccc3nc(SCC(=O)Nc3cccc(Cl)c3)n2n1 | active: 14.1 µM | – |
| CCOC(=O)C1CCCN(S(=O)(=O)Cc2ccccc2)C1 (stereo not given) | inconclusive: 0.891 µM [inhibitor, partial curve, poor fit] | – |
| COc1ccc(C2=Nn3c(nnc3-c3ccccc3OC)SC2)cc1OC | inactive | – |
| Cc1cccn2cc(CSc3nnc(Nc4ccc(C(C)C)cc4)s3)nc12 | active: 39.8 µM | – |
| COC(=O)C(C)Sc1ncnc2c1c(-c1ccccc1)cn2-c1ccc(F)cc1 (stereo not given) | inactive | – |
| O=C1CCCC/C1=C\Nc1ccc(C(=O)O)c(O)c1 | inconclusive: 56.2 µM [inhibitor, partial curve, poor fit] | – |
| CS(=O)(=O)Nc1ccc(C2=NN(C(=O)c3ccco3)C(c3ccccc3)C2)cc1 (stereo not given) | inactive | – |
| O=C(O)c1cc(-c2ccc3ccccc3c2)nc2ccc(F)cc12 | – | inactive: 27.1% [at 2.33 µM] |
| N#C/C(=C\c1coc2ccc(O)cc2c1=O)C(=O)Nc1nc2ccccc2s1 | – | inconclusive: -86.1% [inhibitor] |
| C/C(N)=C(/C#N)C(=O)CSc1nc2ccccc2[nH]1 | inconclusive: 31.6 µM [inhibitor, single point] | – |
| O=C(O)c1cccc2c1C(=O)N(C1CCCCC1)C2 | inconclusive: 89.1 µM [inhibitor, single point] | – |
| CCc1nn(C)c(-c2n[nH]c(=S)n2N)c1Cl | inconclusive: 5.62 µM [inhibitor, single point] | – |
| CC1CCCCN1c1nnc(NC(=O)Nc2ccccc2F)s1 (stereo not given) | inconclusive: 31.6 µM [inhibitor, single point] | – |
| COc1ccccc1Cn1c(=S)[nH]c2cc(C(=O)NCCN3CCOCC3)ccc2c1=O | inconclusive: 22.4 µM [inhibitor, full curve] | – |

— PubChem BioAssay AID504332 (National Center for Advancing Translational Sciences (NCATS), 2011)
